Test results taken from the RNAGym collection of RNA variant scans (doi:10.7554/elife.90254).
The source gives no read counts; variants with many changes may rest on few reads.

B1: LINE1-mini (parent)
chain: GGCAGAGCUCAACACAGCGUGGCAAAGUGGCUGUGGCUAGACUGCC

Variants of: B1
Assay: self-cleavage, relative activity (ratio to wild type); higher = more cleavage; in vitro, sequencing; the parent is a self-cleaving ribozyme

| Variant | self-cleavage |
| --- | --- |
| GGCAGAGCUGAUCACAGUGUGGCAAAGUGGCUGUGGCUAGACUGCC | 0.01 |
| GGCCGAGGUCAACACAGCCUGGCAAAGUGGCUGUGGCUAGACUGCC | 0.01 |
| GGCAUAGCUCAACACAGCGUGGGAAACUGGCUGUGCCUAGACUGCC | 0.01 |
| GGCAGAGCCCACCACAACGUGGCAGAGUGGCUGUGGCUAGUCUGCC | 0.03 |
| GGCAGAGCUCAACCGAUCGUGGCAAAGUCGCUGAGGCUAGACUGCC | 0.01 |
| GGCAGAGCGCAACACUGCGUGGCCAAGCGUCUGUGGCUAGACUGCC | 0.01 |
| GGUGGAGCCCAACACACGGUGACAAAGUGGAUGAGGCUAGACUGCU | 0.01 |
| GGCAGAGCUCAACACAGCGUGGCAAAGUGGCUGUGGCAACACAUCC | 0.02 |
| GGCAGAGCUCAACACAGCGUGGCAACGUGGGUGUGGCUAGACUGUC | 0.02 |
| GGCAGAGCUCAACACAGCGUGGCAAAGUAGGUGUGGCUAGACUGCA | 0.05 |
| GGCAGCGCGCAACACACCGUGGCAAAGUGGCUGUGGCUAGACUGCU | 0.12 |
| GGCAGAACUCAACACAGCGUGGCAAAGUGGCUAUCGCUAGACUGCC | 0.05 |
| GGCAGCGCUCAAUACAACGUGGCAAAGUGGCUGUGGCUAGACUACC | 0.04 |
| CGCAGAGUUCUACACAGCGUGGCAAAGUGGCUGUGGCUAGACUGCC | 0.01 |
| GGCAGAGCUCAACACAACGUGGCAAAGUGGCUGUGACUUGACUGCC | 0.02 |
| GGCAGAGCACAACACAGCGUGGGAAUGUGGCUGUGGCUAGUCUGCC | 0.28 |
| GGCAAAGCUCAACACAGCCUGGCAAAGUGGCUGUGGCUACACUGCC | 0.07 |
| UGCAGAGCUCAACAAAUCGUGGCAAAGUGGCUGUGGCUAGACUGCC | 0.01 |
| GGCAGAGCUCAACGCAUGGUGGCAAAGUGGCUGUGGCUAGACUGCC | 0.03 |

| Variant | self-cleavage |
| --- | --- |
| GGCAGAGCUCAACUCAGCGUGGCACAGUGGCUCUCGCUAGAUUGCC | 0 |
| GGCAGAUCUCAGCACAUCGUGGCAAAAUGGCUGUGGCUAGACUGCC | 0.04 |
| GGCAGAGCUCAACACAGCGUGGGAAAGUUGCUGUGGCUAGAGUGCC | 0 |
| GGCAGAGCUCAAUACAGUGUAGCAAAGUGGAUGUGGCUAGACUGCC | 0.09 |
| GGCAGAGCUCAACAAAACGUGCCAAAGAGGCUGUGGCUAGACUGCC | 0.03 |
| GGCAGAGAUCAACACAGCCUGGCAAAGUGGCUGUGGCUAGACUACC | 0.11 |
| GGCAAAGCUCAACACAGGGUGGUAAAGUGGCUGUGGCUAGACUGCC | 0.06 |
| GGCUGACCUCAGAACAGCGUGGGAAAGUGCCUUUGGCUAGAAUGCC | 0.02 |
| GACAGAGCUCAACACAGCGUGGCUACGUGGCUGUGGCUAGACUGAC | 0.32 |
| GGCAGAGCACAACAUAGCGUGGCACAGUGGCUGUGGCUAGACUGCC | 0.32 |
| GGUAGAGCACAACACAGUGUGCCAAAAUGGCUGUGGCUAGACUGCC | 0.03 |
| GGCAGAGCUCAAGACAGCGUGGCAAAGUGGCUGUUGCUUGACUGCC | 0.25 |
| GGCAGAGCUACGCACAGCGUGGGAAAGUGGCUGUGGCUAGACUGCC | 0.01 |
| GGCAUAGCACAACACAGUGAGGCAAAGCGGCUGUGGCUAUACUGCA | 0.02 |
| GGCAGAGCUCAAAACAGCGUUGCAAAGUGGCUGUGGCUAGAGUGCC | 0.1 |
| GGCAGAGCUUAACACAGCGUGGCAACGUAGCUGUGGCUGCACUGCC | 0 |
| GGCAGAGAUCUACACAGCGUGGCAAAGUGGCUGUGGCAAGACUGCG | 0.01 |
| GGUAGAGCUCAACACAGGGUGGCAAAGUGGCAGUGACUAGACUGCC | 0.03 |
| GGCAGAGAUCAACAUAGCGUGUCAAAGUGGCUGUGGCUAGACUGCC | 0.15 |

| Variant | self-cleavage |
| --- | --- |
| GGCAGAUCUCAACACAGCGGGGCGAAGUGGCUGUGGGUAGACUGCC | 0.01 |
| GGCAGAGCUCAAAAAAGCGUGGCAAAGGCGCUGUGCCCAGACUGCU | 0.03 |
| GACAGAGCUCAACAAAGAGUUGCAAAGUGCCUGUAGCUAAACUGCC | 0.01 |
| GGCAGAGCUCAACACAGCGUGGCAAUGUGGCUGUGGUUACACUGCC | 0.05 |
| GGCAUAGCUCAACACAGCGUGGCAAAGUGGCUUUGGCUAGUCUGCC | 0.05 |
| GGCAGAGCUCAACAAAGCGUUCCAAAGUGGCUAUGGCUAGACUGCC | 0.07 |
| GGCAGAGUUCAAAACAGCGUGGCAAAGUGGCUGUGGCUAGACUUCC | 0.09 |
| GGCGAAGCUCAACGCACCUUGGCAAAGUGACUGUGGCUAGACUGCC | 0.07 |
| GGCAGAGCUAAACACAGCGUGGCAACGUGGCUUUGGCUAGUCUGCC | 0.08 |
| GGCAGAGAUCAACACAUCGUGGCAAAGGGGCUGUUGCUAGACUGCC | 0.07 |
| UGCAGAGCUCAACACAACGUGGCUAAGUGUCUAUGGCUAGACUGCC | 0.05 |
| GGCAGAGCUCAACUCAGCGCGGCUAAGUGGCUGUUGCUAGCCUGCC | 0 |
| CGCAGAGCUCAACACAGCGUGGCAAAGUGGCGGUGGCUAGACUGUC | 0.05 |
| GGUAGAGCUCAACCCAAGGUGUCAAAGUGGCUGUGGCUAGACUGCC | 0.03 |
| GGCAGAGCUCAGCACAGUGUGGCAAAGUUGCUGUGGCUAGACUGCC | 0 |
| GGCAGAGCUGAACACACCGUGGCAAAGUGGCUGGGUCUAGACCGCC | 0.04 |
| GGCGGAGCUCAACACAGCGAGGCAAAAUGGCUGAGGCUAGACUGCC | 0.04 |
| GUCAGAGUUCAACACAGCGUGGCAAAGUGGCUGCGGCUAGGCUGCC | 0.14 |
